# From PubChem BioAssay AID485313 (National Center for Advancing Translational Sciences (NCATS), 2010)
# About 7,600 (2.4%) of roughly 320,000 compounds were called active. Inconclusive results, whose numbers are uncertain, are shown with a selection of clear calls. Calls follow the shape of the dose curve; as a rule, active = well fitted activation curve with a large enough effect; inconclusive = small, poorly fitted or top-dose-only effect; inactive = no such curve, though single readings can be large or run the other way. No potency is given beside an inconclusive call; the fits are too rough.
# Experiment: qHTS Assay for NPC1 Promoter Activators; also: nearly all actives have a fitted effect of over 60% in size;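 as to activation: reporter is driven by a mutant NPC1 promoter; % of control where 0% means no effect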
# Settings: Huh7 NPC1 promoter luciferase reporter, 24 h; series mostly up to 9.22 µM; activation: at the top concentration
# How it was run: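 Stably transfected Huh7 (NPC1 promoter→luciferase), 1500 cells/well in Opti-MEM + 10% FBS, 2 h settle, then compound 24 h at 37 °C. Luminescence after 10 min with Amplite reagent.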
# Potency is read from the fitted curve at half-maximal effect; tags tell the direction and shape of the fitted curve.
SMILES,activation,Potency
CC(C)=CCc1c(O)cc2c(c1O)C(=O)CC(c1ccc(O)cc1)O2 (stereo unspecified),inactive: 20.5%,
Nc1ccccc1C(=O)OCC(=O)N1CCc2ccccc21,,"inconclusive [activator, partial curve]"
Cc1cnn(-c2cc(Oc3ccccc3)ncn2)c1,,"inconclusive [activator, single point]"
COc1cccc(-c2nc3ccc(N4CCN(C)CC4)cc3[nH]2)c1,,"inconclusive [activator, partial curve]"
Cc1ccc2nc(N3CCN(C)CC3)[nH]c2c1,,"inconclusive [activator, single point]"
COc1ccc(NC(=O)O/N=C/c2ccccc2)cc1,,active: 3.55 µM
COC(=O)c1ccc(CC(C(=O)c2ccccc2)N(C)C)cc1 (stereo unspecified),,"inconclusive [activator, single point]"
C/C(=N\OC(=O)NC(C)C)c1sc(-c2ccccc2)nc1C,,active: 3.98 µM
CC(Cc1ccccc1)NC(=O)NC(C)Cc1ccccc1 (stereo unspecified),,"inconclusive [activator, partial curve]"
O=C(CSCc1ccccc1)Nc1ccc2c(c1)OCO2,,"inconclusive [activator, partial curve]"
Cc1ccccc1[N+](=O)[O-],inactive: 1.47%,
Cc1nc2ccc(Cl)cc2c(=O)n1-c1ccc([N+](=O)[O-])cc1,,"inconclusive [activator, single point]"
CCc1ccc(-c2nn(Cc3ccccc3)cc2C=O)cc1,,active: 2.51 µM
CCOc1ccc(CN2CCCC(C(=O)c3ccccc3OC)C2)cc1 (stereo unspecified),inactive: -4.42%,
OCCNc1c2c(nc3ccccc13)CCCC2,inactive: -0.782%,
CCN(CC)S(=O)(=O)c1cc(NC(=O)C(C)N2CC=C(c3ccccc3)CC2)ccc1C (stereo unspecified),inactive: -7.02%,

SMILES,activation,Potency
CN(C)C(=O)Oc1ccc2c(c1)O/C(=C\c1ccc(Cl)cc1)C2=O,,"inconclusive [activator, partial curve]"
CC(C)c1ccc(N=Nc2c(O)[nH]c(=O)[nH]c2=O)cc1,,"inconclusive [activator, single point]"
CCC(C)/C=C(C)/C=C/C1=CC2=C(Cl)C(=O)C(C)(OC(C)=O)C(=O)C2=CO1 (stereo unspecified),inactive: -1.21%,
CC(=O)Nc1ccccc1C(=O)OCC(=O)c1ccc2c(c1)OCCO2,,"inconclusive [activator, single point]"
Cc1ccc2nc(N3CCC(C(=O)N4CCC5(CC4)OCCO5)CC3)sc2c1,,"inconclusive [activator, partial curve]"
Cn1nnc2cc(NC(=O)Nc3cccc(Cl)c3)ccc21,,active: 2 µM
O=c1[nH]c(=S)[nH]c(O)c1N=Nc1ccc2c(c1)OCCO2,,"inconclusive [activator, single point]"
O=C(c1cc2c(s1)-c1ccccc1OC2)N1CCC2(CC1)OCCO2,,"inconclusive [activator, full curve]"
c1ccc(NC2=Nc3ccccc3CC2)cc1,,"inconclusive [activator, partial curve]"
O=C1NC(=O)C(=Cc2ccc(N3CCN(C(=O)c4ccccc4)CC3)c([N+](=O)[O-])c2)C(=O)N1,inactive: -0.188%,
Cc1ccc(-c2cc(NC(=O)c3ccccc3)on2)cc1,,"inconclusive [activator, single point]"
COC(=O)C(O)(c1ccc(NC(=O)Oc2ccccc2)cc1)C(F)(F)F (stereo unspecified),inactive: 1.23%,
Cc1ccc(S(=O)(=O)NCC2CCC(C(=O)N3CCC4(CC3)OCCO4)CC2)cc1 (stereo unspecified),inactive: 13.6%,
c1ccc2sc(NC3=NCCN3)nc2c1,,"inconclusive [activator, single point]"
O=Cc1cn(CCCOc2ccccc2)c2ccccc12,,"inconclusive [activator, single point]"
